Data from PubChem BioAssay AID1345082 (National Center for Advancing Translational Sciences (NCATS), 2018).
Out of some 94,000 compounds screened, about 4,000 (4.3%) were called active. The inconclusive results got no clear call from the source; some entries with a clear call stand among them for comparison. Calls come from the whole dose curve; as a rule, active = well fitted inhibition curve with a large enough effect; inconclusive = small, poorly fitted or top-dose-only effect; inactive = no such curve, though single readings can be large or run the other way. A potency beside an inconclusive call is a rough fit, not a confirmed value.

Assay: Cytotoxic Profiling in NIH 3T3 Cell Line of Diverse Libraries Using Quantitative High-Throughput Screening; note: nearly all actives have a fitted effect of over 55% in size
Details: NIH 3T3 viability, CellTiter-Glo ATP luminescence, 48-72 h; activity change, negative = cytotoxicity: at 96.7 µM (top of the series) unless noted; series mostly up to 96.7 µM
Procedure, shortened: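 First NIH 3T3 cells are plated at 400 cells/well; next compound is pinned in; then plates incubate 48 or 72 hr at 37 °C; finally CellTiter-Glo is added and luminescence read after 10 min.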
% is set by controls: 0 for no effect and ±100 for the full control effect; potency is the fitted concentration of half-maximal effect; tags give direction and shape of the fitted curve.

| Structure (SMILES) | Potency | activity change, negative = cytotoxicity | outcome |
| --- | --- | --- | --- |
| CCOC(=O)C[C@@H]1C[C@@H](C(C)C)[C@H](CNS(=O)(=O)c2ccc(OC)cc2)C=C1C | inconclusive: 17.8 µM [inhibitor, full curve, poor fit] |  |  |
| CC(C)c1nc2c(c(-c3ccc(O)cc3)n1)CN(Cc1cccc3ccccc13)CC2 | inconclusive: 35.5 µM [inhibitor, partial curve, poor fit] |  |  |
| Cc1ccc2c(n1)N(C)[C@H](CO)CCN(Cc1ccc(F)c(F)c1)C2 |  | inactive: -25.9% [at 174 µM] |  |
| O=C1CCC(C(=O)N2CCCn3nc(C(=O)Nc4ccccc4)cc3C2)=NN1 | inconclusive: 50.1 µM [inhibitor, partial curve, poor fit] |  |  |
| CN1CCC(N[C@H]2C[C@@H](Cc3cc(-c4ccc(F)cc4)on3)C2(C)C)CC1 | active: 7.08 µM |  |  |
| COc1ccccc1-c1nnc2ccc(C(=O)NCCc3ccccc3F)cn12 | inconclusive: 70.8 µM [inhibitor, partial curve, poor fit] |  |  |
| O=S(=O)(Cc1ccccc1)N1CCC(F)(c2nc(-c3ccncc3)no2)CC1 | inconclusive: 50.1 µM [inhibitor, partial curve, poor fit] |  |  |
| COCc1noc(-c2ccc(NC[C@H]3CCc4ccccc4O3)nc2)n1 | inconclusive: 35.5 µM [inhibitor, partial curve] |  |  |
| Cc1ccc(N2CCC(NC(=O)Cc3ccccc3Cl)C2=O)cc1 (configuration not stated) |  |  | inactive |
| COc1ccc(-n2cc(CN3CCCC(O)C3)c(-c3cccc(F)c3)n2)cc1 (configuration not stated) | inconclusive: 56.2 µM [inhibitor, partial curve, poor fit] |  |  |
| CN1C(=O)CO[C@H](c2ccc(NC(=O)c3cccnc3)cc2)[C@H]1CO |  | inactive: 2.48% [at 174 µM] |  |
| O=C(c1cccnc1)N1CC(n2cc(COCc3ccccc3)nn2)C1 |  | inactive: -27.7% |  |
| CCNc1nccc(N2CCC(CC(=O)NCC(C)C)CC2)n1 | inconclusive: 50.1 µM [inhibitor, partial curve, poor fit] |  |  |
| Cc1cnc(-c2ccccc2)n1CCC1CCN(C(=O)C2(c3ccccc3)CC2)CC1 | inconclusive: 50.1 µM [inhibitor, partial curve, poor fit] |  |  |
| Cc1cc(-c2cnc3n[nH]c(-c4sccc4C)c3n2)ccn1 | inconclusive: 39.8 µM [inhibitor, partial curve, poor fit] |  |  |
| Cc1ccc(C(=O)N2CCC(N3CCOCC3=O)CC2)cc1 |  |  | inactive |
| O=C(c1ccccc1)N1C[C@@H](F)[C@@H](OCc2nc3ccc(C(F)(F)F)cc3[nH]2)C1 | inconclusive: 56.2 µM [inhibitor, partial curve, poor fit] |  |  |
| CCOC(=O)C1CCN(C(=O)C2(c3ccc(NS(C)(=O)=O)cc3)CCCCC2)CC1 | inconclusive: 44.7 µM [inhibitor, partial curve, poor fit] |  |  |
| Cc1cccc(-c2nc3ccc(C(=O)NC4CCCCCC4)cc3o2)n1 | inconclusive: 112 µM [inhibitor, single point] |  |  |
| c1ccc(N2CC3(CN(CC4CC4)CC3CNc3cccnc3)C2)cc1 (configuration not stated) | inconclusive: 112 µM [inhibitor, single point] |  |  |
| Cn1ccnc1C(=O)N1C[C@@H](COCC2CC2)[C@H](c2ccncc2)C1 |  |  | inactive |

| Structure (SMILES) | Potency | activity change, negative = cytotoxicity | outcome |
| --- | --- | --- | --- |
| O=C(NC1CC1)C1COC2(CCN(C(=O)c3cccc(Cl)c3)CC2)N1C(=O)c1cccc(F)c1 (configuration not stated) | inconclusive: 35.5 µM [inhibitor, partial curve, poor fit] |  |  |
| Cc1ncsc1CN1C[C@@H](NC(=O)c2cccnc2)C[C@H]1CO | inconclusive: 79.4 µM [inhibitor, partial curve, poor fit] |  |  |
| O=C(O)c1cnc(N2CCCCC2)nc1-c1ccccc1 | inconclusive: 70.8 µM [inhibitor, single point] |  |  |
| O=C(Cc1ccccn1)NC1CCN(Cc2ccc(-c3ccsc3)cc2)C1 (configuration not stated) | inconclusive: 44.7 µM [inhibitor, partial curve, poor fit] |  |  |
| CNC(=O)c1cccc(-c2cnc(NC(=O)c3ccncc3)c3c2CCO3)c1 | inconclusive: 79.4 µM [inhibitor, partial curve, poor fit] |  |  |
| O=C(c1cc(CN2CCOCC2)on1)N1CCC2(CC1)NCCc1c2[nH]c2ccccc12 |  | inactive: -25.2% |  |
| CN(CC(=O)N1CCN(c2ccccc2C#N)C(=O)C1)Cc1ccccc1F |  | inactive: -1.26% |  |
| C#CCNC(=O)C1CCCN(c2nccc(Nc3ccccc3F)n2)C1 (configuration not stated) | inconclusive: 50.1 µM [inhibitor, partial curve, poor fit] |  |  |
| Cc1ccccc1N1CCN(C(=O)c2ccc3c(c2)N(C)C2CCCCCN2C3=O)CC1 (configuration not stated) | inconclusive: 50.1 µM [inhibitor, partial curve, poor fit] |  |  |
| COCc1ncc(C)n1CCNC(=O)Cc1cccc(F)c1 | inconclusive: 79.4 µM [inhibitor, partial curve, poor fit] |  |  |
| O=C(NC1CCN(Cc2cccc(-c3ccc(F)c(F)c3)c2)CC1)c1ccccc1Cl | inconclusive: 50.1 µM [inhibitor, partial curve, poor fit] |  |  |
| COc1cccc(-c2cccc(C(=O)N3CCN(C(C)=O)CC3)c2)c1 |  | inactive: -22.3% [at 138 µM] |  |
| C=CCN1C[C@H]2COc3cc(OC)ccc3[C@H]2N(C(=O)c2ccccc2)CCC1=O | inconclusive: 79.4 µM [inhibitor, single point] |  |  |
| CCCCN(C)C(=O)CC1CCN(c2ccnc(OC)n2)CC1 | inconclusive: 35.5 µM [inhibitor, partial curve, poor fit] |  |  |
| O=C(NC1CCCCC1)C1CN(S(=O)(=O)c2cccc(Cl)c2)CC12CCOCC2 (configuration not stated) | inconclusive: 50.1 µM [inhibitor, partial curve, poor fit] |  |  |
| Cc1ccc(-n2c(C3CCN(C(=O)c4ccc(OC(F)(F)F)cc4)CC3)n[nH]c2=O)cc1 | inconclusive: 2.82 µM [inhibitor, full curve, poor fit] |  |  |
| Cc1cn2nc(C(=O)Nc3ccc(C(=O)N4CCCC4)cc3)cc2c(=O)[nH]1 | inconclusive: 44.7 µM [inhibitor, partial curve, poor fit] |  |  |
| Cc1ccc(-c2cccc(CN3CCCC3C(=O)N3CCN(c4ncccn4)CC3)c2)cc1Cl (configuration not stated) | inconclusive: 22.4 µM [inhibitor, full curve, poor fit] |  |  |
| Cc1ccc2nc(CO[C@H]3CN(Cc4ccc5c(c4)OCO5)C[C@H]3F)[nH]c2c1 |  | inactive: -29.5% [at 138 µM] |  |
| Cn1ncc2c(C(=O)NCCc3ccccc3)cc(-c3ccc(F)cc3)nc21 | inconclusive: 50.1 µM [inhibitor, partial curve, poor fit] |  |  |
| COc1cccc(CN2C[C@H]3[C@H](C2)[S+](=O)([O-])C(C)(C)C(=O)N3Cc2ccccc2)c1 | inconclusive: 50.1 µM [inhibitor, partial curve, poor fit] |  |  |

| Structure (SMILES) | Potency | activity change, negative = cytotoxicity | outcome |
| --- | --- | --- | --- |
| Cc1cccnc1CN(C)c1ccc(C(=O)NCc2noc(C(C)C)n2)cn1 | inconclusive: 8.91 µM [inhibitor, full curve, poor fit] |  |  |
| CC(C)c1noc(-c2cn(C3CCN(C(=O)c4ccc(Cl)cc4)C3)nn2)n1 (configuration not stated) | inconclusive: 5.62 µM [inhibitor, full curve, poor fit] |  |  |
| O=C(NC1CCCC1)N1CCC(C(=O)N2CCCC2c2nc3ccncc3[nH]2)CC1 (configuration not stated) |  |  | inactive |
| CNC(=O)CN1C(=O)CN(C(=O)c2ccc(F)cc2)CCC(OC)c2ccccc21 (configuration not stated) | inconclusive: 50.1 µM [inhibitor, partial curve, poor fit] |  |  |
| O=C(Nc1ccccc1F)N1CCOC(c2ccc(Cl)cc2)C1 (configuration not stated) | inconclusive: 70.8 µM [inhibitor, partial curve, poor fit] |  |  |
| O[C@H]1[C@H](NCc2ccncc2)[C@H]2CO[C@H](O2)[C@@H]1N1CCN(c2ccccc2)CC1 | inconclusive: 89.1 µM [inhibitor, partial curve, poor fit] |  |  |
| CNc1ccc(-c2noc([C@@H]3CCCN3Cc3cnc4ccccc4c3)n2)cn1 | inconclusive: 44.7 µM [inhibitor, partial curve, poor fit] |  |  |
| C[C@]1(CO)[C@H]2Cc3sc(NC(=O)c4ccnc(Cl)c4)nc3[C@@H](CC(=O)O)[C@]2(C)CC[C@H]1O |  |  | inactive |
| O=C(Nc1ccc(F)cc1)C1CN(c2cccc(Cl)c2)C(=O)N1 (configuration not stated) | inconclusive: 56.2 µM [inhibitor, partial curve, poor fit] |  |  |
| COc1ccccc1C(=O)N1CCC(C(NC(=O)c2cccs2)C(=O)N2CCCCC2)CC1 (configuration not stated) |  | inactive: -24.7% |  |
| CNC(=O)[C@@H]1CN(C(=O)c2nccc3ccccc23)C[C@H]1CO |  | inactive: -5.67% |  |
| CN1C(=O)[C@@H]2C[C@@H](CN2Cc2nccs2)Oc2ccccc21 |  | inactive: -5.74% [at 138 µM] |  |
| FC(F)(F)c1ccc(-c2ncc[nH]2)cc1 | inconclusive: 70.8 µM [inhibitor, partial curve] |  |  |
| NCc1cccc(-c2ccc(OC(F)(F)F)cc2)c1 | active: 31.6 µM |  |  |
| COCCCNC(=O)c1ccc2oc(-c3cccnc3Cl)nc2c1 |  | inactive: -23.3% |  |
| Cc1cc2nc(CO[C@H]3CN(Cc4ccccc4F)C[C@H]3F)[nH]c2cc1C | inconclusive: 89.1 µM [inhibitor, partial curve, poor fit] |  |  |
| Cn1nc(C2CC2)cc1NC(=O)Cc1ccc(F)cc1 | inconclusive: 89.1 µM [inhibitor, partial curve, poor fit] |  |  |
| O=C(C1CCCN1Cc1ccc(-c2cncnc2)cc1)N1CCC(c2ccccc2)CC1 (configuration not stated) |  | inactive: -22.2% |  |
| COc1ccc2nc(C[C@@H]3C[C@@H](C(C)C)[C@H](CN)C=C3C)[nH]c2c1 | active: 70.8 µM |  |  |
| COc1ccc(-c2cc(-c3ccc(F)cc3)cn3cncc23)cc1 | inconclusive: 79.4 µM [inhibitor, partial curve, poor fit] |  |  |
